Measurements taken from the supplement of paper PMC11876631.
± gives the standard deviation of the averaged measurements. Laboratory Escherichia coli strains with one amino-acid change in an essential protein, pooled on minimal glucose agar with carbenicillin or gentamicin at twice the control MIC (plus kanamycin and chloramphenicol for the plasmids), 48 h. Fold change of barcode share against drug-free plates; higher = less susceptible. Active = above 20 in both replicates (the paper's putatively resistant). '<' = one read or none on drug, '>' = one read or none on a drug-free plate. Shares are relative, so most strains fall below 1 when a few take over. Listed are strains with at least 15 reads on both drug-free plates, and hits; most hits rest on fewer reference reads. Replicate rank correlation about 0.5. Edits are read from barcodes.

B1: kdsB V82D (protein)
chain: MSFVVIIPARYASTRLPGKPLVDINGKPMIVHVLERARESGAERIIVATDHEDVARAVEAAGGEVCMTRADHQSGTERLAEDVEKCAFSDDTVIVNVQGDEPMIPATIIRQVADNLAQRQVGMATLAVPIHNAEEAFNPNAVKVVLDAEGYALYFSRATIPWDRDRFAEGLETVGDNFLRHLGIYGYRAGFIRRYVNWQPSPLEHIEMLEQLRVLWYGEKIHVAVAQEVPGTGVDTPEDLERVRAEMR
B2: kdsB I46W (protein)
chain: MSFVVIIPARYASTRLPGKPLVDINGKPMIVHVLERARESGAERIWVATDHEDVARAVEAAGGEVCMTRADHQSGTERLAEVVEKCAFSDDTVIVNVQGDEPMIPATIIRQVADNLAQRQVGMATLAVPIHNAEEAFNPNAVKVVLDAEGYALYFSRATIPWDRDRFAEGLETVGDNFLRHLGIYGYRAGFIRRYVNWQPSPLEHIEMLEQLRVLWYGEKIHVAVAQEVPGTGVDTPEDLERVRAEMR
B3: kdsB V95D (protein)
chain: MSFVVIIPARYASTRLPGKPLVDINGKPMIVHVLERARESGAERIIVATDHEDVARAVEAAGGEVCMTRADHQSGTERLAEVVEKCAFSDDTVIDNVQGDEPMIPATIIRQVADNLAQRQVGMATLAVPIHNAEEAFNPNAVKVVLDAEGYALYFSRATIPWDRDRFAEGLETVGDNFLRHLGIYGYRAGFIRRYVNWQPSPLEHIEMLEQLRVLWYGEKIHVAVAQEVPGTGVDTPEDLERVRAEMR
B4: kdsA I92A (protein)
chain: MKQKVVSIGDINVANDLPFVLFGGMNVLESRDLAMRICEHYVTVTQKLGIPYVFKASFDKANRSSIHSYRGPGLEEGMKIFQELKQTFGVKAITDVHEPSQAQPVADVVDVIQLPAFLARQTDLVEAMAKTGAVINVKKPQFVSPGQMGNIVDKFKEGGNEKVILCDRGANFGYDNLVVDMLGFSIMKKVSGNSPVIFDVTHALQCRDPFGAASGGRRAQVAELARAGMAVGLAGLFIEAHPDPEHAKCDGPSALPLAKLEPFLKQMKAIDDLVKGFEELDTSK
B5: aroA L250Q (protein)
chain: MESLTLQPIARVDGTINLPGSKSVSNRALLLAALAHGKTVLTNLLDSDDVRHMLNALTALGVSYTLSADRTRCEIIGNGGPLHAEGALELFLGNAGTAMRPLAAALCLGSNDIVLTGEPRMKERPIGHLVDALRLGGAKITYLEQENYPPLRLQGGFTGGNVDVDGSVSSQFLTALLMTAPLAPEDTVIRIKGDLVSKPYIDITLNLMKTFGVEIENQHYQQFVVKGGQSYQSPGTYLVEGDASSASYFQAAAAIKGGTVKVTGIGRNSMQGDIRFADVLEKMGATICWGDDYISCTRGELNAIDMDMNHIPDAAMTIATAALFAKGTTTLRNIYNWRVKETDRLFAMATELRKVGAEVEEGHDYIRITPPEKLNFAEIATYNDHRMAMCFSLVALSDTPVTILDPKCTAKTFPDYFEQLARISQAA
B6: aroA L31A (protein)
chain: MESLTLQPIARVDGTINLPGSKSVSNRALLAAALAHGKTVLTNLLDSDDVRHMLNALTALGVSYTLSADRTRCEIIGNGGPLHAEGALELFLGNAGTAMRPLAAALCLGSNDIVLTGEPRMKERPIGHLVDALRLGGAKITYLEQENYPPLRLQGGFTGGNVDVDGSVSSQFLTALLMTAPLAPEDTVIRIKGDLVSKPYIDITLNLMKTFGVEIENQHYQQFVVKGGQSYQSPGTYLVEGDASSASYFLAAAAIKGGTVKVTGIGRNSMQGDIRFADVLEKMGATICWGDDYISCTRGELNAIDMDMNHIPDAAMTIATAALFAKGTTTLRNIYNWRVKETDRLFAMATELRKVGAEVEEGHDYIRITPPEKLNFAEIATYNDHRMAMCFSLVALSDTPVTILDPKCTAKTFPDYFEQLARISQAA
B7: leuA I6W (protein)
chain: MSQQVWIFDTTLRDGEQALQASLSVKEKLQIALALERMGVDVMEVGFPVSSPGDFESVQTIARQVKNSRVCALARCVEKDIDVAAESLKVAEAFRIHTFIATSPMHIATKLRSTLDEVIERAIYMVKRARNYTDDVEFSCEDAGRTPIADLARVVEAAINAGATTINIPDTVGYTMPFEFAGIISGLYERVPNIDKAIISVHTHDDLGLAVGNSLAAVHAGARQVEGAMNGIGERAGNCSLEEVIMAIKVRKDILNVHTAINHQEIWRTSQLVSQICNMPIPANKAIVGSGAFAHSSGIHQDGVLKNRENYEIMTPESIGLNQIQLNLTSRSGRAAVKHRMDEMGYKESEYNLDNLYDAFLKLADKKGQVFDYDLEALAFIGKQQEEPEHFRLDYFSVQSGSNDIATAAVKLACGEEVKAEAANGNGPVDAVYQAINRITEYNVELVKYSLTAKGHGKDALGQVDIVANYNGRRFHGVGLATDIVESSAKAMVHVLNNIWRAAEVEKELQRKAQHNENNKETV
B8: leuA I100Q (protein)
chain: MSQQVIIFDTTLRDGEQALQASLSVKEKLQIALALERMGVDVMEVGFPVSSPGDFESVQTIARQVKNSRVCALARCVEKDIDVAAESLKVAEAFRIHTFQATSPMHIATKLRSTLDEVIERAIYMVKRARNYTDDVEFSCEDAGRTPIADLARVVEAAINAGATTINIPDTVGYTMPFEFAGIISGLYERVPNIDKAIISVHTHDDLGLAVGNSLAAVHAGARQVEGAMNGIGERAGNCSLEEVIMAIKVRKDILNVHTAINHQEIWRTSQLVSQICNMPIPANKAIVGSGAFAHSSGIHQDGVLKNRENYEIMTPESIGLNQIQLNLTSRSGRAAVKHRMDEMGYKESEYNLDNLYDAFLKLADKKGQVFDYDLEALAFIGKQQEEPEHFRLDYFSVQSGSNDIATAAVKLACGEEVKAEAANGNGPVDAVYQAINRITEYNVELVKYSLTAKGHGKDALGQVDIVANYNGRRFHGVGLATDIVESSAKAMVHVLNNIWRAAEVEKELQRKAQHNENNKETV
B9: leuA I198Q (protein)
chain: MSQQVIIFDTTLRDGEQALQASLSVKEKLQIALALERMGVDVMEVGFPVSSPGDFESVQTIARQVKNSRVCALARCVEKDIDVAAESLKVAEAFRIHTFIATSPMHIATKLRSTLDEVIERAIYMVKRARNYTDDVEFSCEDAGRTPIADLARVVEAAINAGATTINIPDTVGYTMPFEFAGIISGLYERVPNIDKAQISVHTHDDLGLAVGNSLAAVHAGARQVEGAMNGIGERAGNCSLEEVIMAIKVRKDILNVHTAINHQEIWRTSQLVSQICNMPIPANKAIVGSGAFAHSSGIHQDGVLKNRENYEIMTPESIGLNQIQLNLTSRSGRAAVKHRMDEMGYKESEYNLDNLYDAFLKLADKKGQVFDYDLEALAFIGKQQEEPEHFRLDYFSVQSGSNDIATAAVKLACGEEVKAEAANGNGPVDAVYQAINRITEYNVELVKYSLTAKGHGKDALGQVDIVANYNGRRFHGVGLATDIVESSAKAMVHVLNNIWRAAEVEKELQRKAQHNENNKETV
B10: leuA I7A (protein)
chain: MSQQVIAFDTTLRDGEQALQASLSVKEKLQIALALERMGVDVMEVGFPVSSPGDFESVQTIARQVKNSRVCALARCVEKDIDVAAESLKVAEAFRIHTFIATSPMHIATKLRSTLDEVIERAIYMVKRARNYTDDVEFSCEDAGRTPIADLARVVEAAINAGATTINIPDTVGYTMPFEFAGIISGLYERVPNIDKAIISVHTHDDLGLAVGNSLAAVHAGARQVEGAMNGIGERAGNCSLEEVIMAIKVRKDILNVHTAINHQEIWRTSQLVSQICNMPIPANKAIVGSGAFAHSSGIHQDGVLKNRENYEIMTPESIGLNQIQLNLTSRSGRAAVKHRMDEMGYKESEYNLDNLYDAFLKLADKKGQVFDYDLEALAFIGKQQEEPEHFRLDYFSVQSGSNDIATAAVKLACGEEVKAEAANGNGPVDAVYQAINRITEYNVELVKYSLTAKGHGKDALGQVDIVANYNGRRFHGVGLATDIVESSAKAMVHVLNNIWRAAEVEKELQRKAQHNENNKETV
B11: leuA I199P (protein)
chain: MSQQVIIFDTTLRDGEQALQASLSVKEKLQIALALERMGVDVMEVGFPVSSPGDFESVQTIARQVKNSRVCALARCVEKDIDVAAESLKVAEAFRIHTFIATSPMHIATKLRSTLDEVIERAIYMVKRARNYTDDVEFSCEDAGRTPIADLARVVEAAINAGATTINIPDTVGYTMPFEFAGIISGLYERVPNIDKAIPSVHTHDDLGLAVGNSLAAVHAGARQVEGAMNGIGERAGNCSLEEVIMAIKVRKDILNVHTAINHQEIWRTSQLVSQICNMPIPANKAIVGSGAFAHSSGIHQDGVLKNRENYEIMTPESIGLNQIQLNLTSRSGRAAVKHRMDEMGYKESEYNLDNLYDAFLKLADKKGQVFDYDLEALAFIGKQQEEPEHFRLDYFSVQSGSNDIATAAVKLACGEEVKAEAANGNGPVDAVYQAINRITEYNVELVKYSLTAKGHGKDALGQVDIVANYNGRRFHGVGLATDIVESSAKAMVHVLNNIWRAAEVEKELQRKAQHNENNKETV
B12: leuD V12P (protein)
chain: MAEKFIKHTGLPVPLDAANVDTDAIIPKQFLQKVTRTGFGAHLFNDWRFLDEKGQQPNPDFVLNFPQYQGASILLARENFGCGSSREHAPWALTDYGFKVVIAPSFADIFYGNSFNNQLLPVKLSDAEVDELFALVKANPGIHFDVDLEAQEVKAGEKTYRFTIDAFRRHCMMNGLDSIGLTLQHDDAIAAYEAKQPAFMN
B13: leuD L63D (protein)
chain: MAEKFIKHTGLVVPLDAANVDTDAIIPKQFLQKVTRTGFGAHLFNDWRFLDEKGQQPNPDFVDNFPQYQGASILLARENFGCGSSREHAPWALTDYGFKVVIAPSFADIFYGNSFNNQLLPVKLSDAEVDELFALVKANPGIHFDVDLEAQEVKAGEKTYRFTIDAFRRHCMMNGLDSIGLTLQHDDAIAAYEAKQPAFMN

Target: Escherichia coli (laboratory strain)
Test: barcode share on antibiotic plates over drug-free plates; higher = less susceptible
Conditions: antibiotic: gentamicin; 2× MIC (MIC 0.45 µg/mL)
Protocol: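 A pool of E. coli strains, each edited to carry one amino-acid change in an essential protein, was grown for 48 h on minimal glucose agar with or without antibiotic; strain barcodes were sequenced; mean of two replicates.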

Protein | fold change of barcode share
B1 | < 0.0195
B2 | < 0.0153
B3 | < 0.0165
B4 | < 0.0195
B5 | < 0.0131
B6 | < 0.0147
B7 | < 0.018
B8 | < 0.0143
B9 | < 0.0182
B10 | < 0.018
B11 | < 0.0187
B12 | < 0.018
B13 | 0.137 ± 0.028
